Laboratory results reported in PubChem BioAssay AID1159614 (National Center for Advancing Translational Sciences (NCATS), 2016).
About 65 (0.1%) of roughly 45,000 compounds were called active. Calls come from the whole dose curve; as a rule, active = well fitted activation curve with a large enough effect; inconclusive = small, poorly fitted or top-dose-only effect; inactive = no such curve, though single readings can be large or run the other way. The list shows a part of the results.

Molecular target: Galactocerebrosidase (Homo sapiens) (UniProt P54803)
Chain of UniProt P54803 (P54803 whole entry, looked up): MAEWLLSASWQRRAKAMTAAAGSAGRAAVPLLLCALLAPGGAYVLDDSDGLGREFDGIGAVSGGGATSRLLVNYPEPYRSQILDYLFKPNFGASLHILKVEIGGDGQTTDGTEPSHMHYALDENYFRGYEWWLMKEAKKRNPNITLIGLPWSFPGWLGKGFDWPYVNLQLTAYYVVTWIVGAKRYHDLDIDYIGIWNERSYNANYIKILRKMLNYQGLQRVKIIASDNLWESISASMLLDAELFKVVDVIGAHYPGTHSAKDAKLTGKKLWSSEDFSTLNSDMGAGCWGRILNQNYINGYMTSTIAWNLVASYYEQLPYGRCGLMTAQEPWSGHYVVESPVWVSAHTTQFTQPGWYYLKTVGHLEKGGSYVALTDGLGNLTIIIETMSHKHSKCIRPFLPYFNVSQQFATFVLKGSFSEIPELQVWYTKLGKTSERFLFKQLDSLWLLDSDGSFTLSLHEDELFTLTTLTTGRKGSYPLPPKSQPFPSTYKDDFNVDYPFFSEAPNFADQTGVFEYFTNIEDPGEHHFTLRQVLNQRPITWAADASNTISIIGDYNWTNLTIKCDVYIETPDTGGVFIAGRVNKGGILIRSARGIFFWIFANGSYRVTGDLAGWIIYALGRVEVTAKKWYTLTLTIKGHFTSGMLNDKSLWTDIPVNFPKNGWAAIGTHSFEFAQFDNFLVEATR
Experiment: A Novel Cell-Based Assay to Identify Small Molecules for B -Galactocerebrosidase; note: 0% is about no effect; nearly all actives have a fitted effect of over 65% in size
Details: 145M-Twi-hGALC-G270D cells (Twitcher mouse brain line with human GALC G270D), HMU-beta-Gal fluorescence, 48 h; series mostly up to 57.5 µM; activation: at the top concentration
How it was run: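 Live 145M-Twi cells (Twitcher mouse brain-derived, GALC-null) stably expressing human GALC-G270D, with a wild-type GALC line, were compound-treated. Residual GALC activity was then read as fluorescence from 0.1 mM final HMU-β-gal at pH 5.2; higher signal means activation.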

activation, inactive:
CC(C)(C)OC(=O)N1CCC(c2c(C(=O)NCCc3ccccc3)cnn2-c2ccc(F)cc2F)CC1 -3.83%
COc1ccc(-c2c(C)c3ccc(O)c(CN4CCN(CCO)CC4)c3oc2=O)cc1OC -14.3%
Cc1sc(-c2cc3c([nH]c2=O)CC(c2ccccc2)CC3=O)nc1-c1ccc(Cl)cc1 (stereo not given) -14.8%
Cc1c(C(=O)N2CCOCC2)oc2c1-c1nn(CC(=O)NCc3cccc(Cl)c3)cc1CC2 -6.55%
Cc1ccc(C)c(N2CCN(CCCNC(=O)c3cnn(-c4ccc(F)cc4)c3C3CCN(C(=O)OC(C)(C)C)CC3)CC2)c1 -11.6%
C#CCn1c(=O)n(-c2cccc(Cl)c2C)c(=O)c2c3c(sc21)CN(C(C)=O)CC3 -19%
CC(=O)c1ccc(-n2c(CCC(=O)O)ccc2-c2cccs2)cc1 -10.3%
Cc1ccc(C)c(CSc2nnc(C)n3c2cc2sccc23)c1 -3.33%
COc1ccc(-c2cnc(C)o2)cc1S(=O)(=O)Nc1ccc(OC(F)(F)F)cc1 -1.51%
CCOc1ccc(CNC(=O)Cn2nc(C)c3c(C)n(-c4ccc(C)cc4)nc3c2=O)cc1 -15.7%
CC(C)C(=O)Nc1nc2c(s1)CC(C(C)(C)C)CC2 (stereo not given) -11%
O=C(CS(=O)(=O)c1cccc2nsnc12)NCc1ccccc1 -22.1%
COc1cc(NC(=O)C(Cc2ccccc2)NS(=O)(=O)c2cccs2)cc(OC)c1 (stereo not given) -15.6%
Cc1noc(/C=C/c2ccccc2F)c1S(=O)(=O)N1CCC(C(=O)NCC(C)c2ccccc2)CC1 (stereo not given) -8.61%
O=C(Cn1c(=O)nc(-c2ccccc2)c2ccccc21)N1CCN(c2ccc(F)cc2)CC1 -9.71%
COc1cc(OC)c(NC2=C(c3ccc(C(F)(F)F)cc3)C(=O)c3ccccc32)cc1Cl -4.64%
Cc1ccc(-n2c(=O)c3c(c4cc(C)ccc4n3C)n(CC(=O)c3ccc(Cl)cc3)c2=O)cc1 -6.88%
O=C(O)CSc1nc2ccc(NC(=O)COc3ccc(Cl)cc3)cc2s1 -17.8%
CC(C)Oc1ccccc1NC(=O)CSc1nccn1C -9.7%
OCCCn1c(-c2ccc(F)cc2)csc1=Nc1ccc(F)cc1 -37.2%
COc1ccc(CNC(=O)CC(c2ccc(OC)cc2)N2Cc3ccccc3C2=O)cc1 (stereo not given) -12.8%
COc1cccc(Cc2nc3ccccc3nc2SCC(=O)N2CCCc3ccccc32)c1 28.5%
COC(=O)c1ccc(NC(=O)CSc2nnc3c4ccccc4n(C(C)C)c3n2)cc1 -16.8%
Cc1ccc(NC(=O)c2ccc(CN3CC(=O)N4CCCCC4C3=O)cc2)c(C)c1 (stereo not given) -14.2%
Cc1ccc2c(=O)c(C(=O)c3ccc(F)cc3)cn(CC(=O)Nc3ccc4c(c3)OCCO4)c2n1 -9.59%
CCOc1cccc(C(=O)Nc2cc(C)c(O)c(-c3nc4ncccc4o3)c2)c1 -2.78%
CCCNC(=O)CN1C(=O)COc2ccc(S(=O)(=O)N3CCC(C)CC3)cc21 -1.82%
COc1ccc(OC)c(-n2c3c(cc(-c4nc(-c5ccc(Cl)cc5)cs4)c2=O)C(=O)CC(C)(C)C3)c1 -10.5%
O=C(c1ccc2c(c1)N(Cc1ccccc1)C(=O)c1ccccc1S2(=O)=O)N1CCc2ccccc21 -11.5%
Cc1c(NC(=O)C(C)(C)Oc2ccc(Cl)cc2)cccc1-c1nc2ccccc2o1 -17.9%
CCOC(=O)c1c(NC(=O)c2cc(=O)c3cc(C)cc(C)c3o2)sc(C)c1C -11.4%
O=C(CSc1nccn1C1CCCC1)Nc1cc(C(F)(F)F)ccc1Cl -17%
Cc1ccc(-c2nn(CC(=O)NCc3ccccc3)c3c2cnc2ccc(F)cc23)cc1C -18.8%
CCC(=O)N1CCc2cc(S(=O)(=O)NC(Cc3ccccc3)C(=O)Nc3ccccc3C)ccc21 (stereo not given) -20.2%
O=S(=O)(c1ccc(Cl)cc1)c1nc(-c2ccco2)oc1SCc1ccccc1F -11.3%
COc1ccccc1CNC(=O)CSc1ccc(-c2sc(-c3ccccc3)nc2C)nn1 -0.963%
CC(C(=O)O)c1ccc(/C=C2\CCCCC2=O)cc1 (stereo not given) -16.8%
Cc1cccc(NC(=O)C(=O)NCC(c2ccc3c(c2)OCO3)N2CCN(c3ccccc3)CC2)c1 (stereo not given) -8.81%
CCOCCCNC(=O)C(c1ccccc1)N1Cc2ccccc2C1=O (stereo not given) -4.12%
O=C(Nc1sc2c(c1C(=O)Nc1ccccc1)CCC2)c1ccc(Br)cc1 2.57%
CC(=O)c1cccc(NS(=O)(=O)c2cc3c(cc2C)n(C)c(=O)c(=O)n3C)c1 -11.4%
COc1ccc(-c2cc(C(F)F)nn2-c2ccc(S(N)(=O)=O)cc2)cc1F -4.22%
Cc1nc2cccnc2n1-c1cccc(C(=O)NCCN(C)C)c1 -5.88%
CC(C)c1nn2c(=O)cc(COC(=O)c3cccs3)nc2s1 -10%
COc1ccccc1CNC(=O)C(C)n1c(=O)cc(-c2ccccc2)c2c(C)nn(C)c21 (stereo not given) -6.08%
CC(=O)Nc1ccc2nc3c(=O)n(C)c(=O)n(C)c3nc2c1C -3.46%
CCOC(=O)Cn1c(=O)oc2cc(S(=O)(=O)N3CCN(c4cccc(C)c4)C(C)C3)ccc21 (stereo not given) -3.82%
Cc1cccc(OC(=O)c2cc(-c3ccc(C)c(C)c3)on2)c1 -11.8%
COc1ccc(Cl)cc1NC(=O)N1CCN(Cc2cc(=O)n3nc(-c4ccccc4)sc3n2)CC1 -8.02%
O=C1CCSC2(C(=O)N(Cc3ccc(F)cc3)c3ccccc32)N1c1ccc(Cl)cc1 (stereo not given) -6.99%
N#Cc1nc(-c2ccc(COc3ccccc3)o2)oc1N1CCN(c2ccccc2)CC1 -14.8%
CCc1ccc(CNC(=O)c2cnc3sc(N4CCOCC4)nn3c2=O)cc1 -12.5%
CCOC(=O)c1c(S(=O)(=O)N2CCCC(C(=O)NCc3cccc(C)c3)C2)c(C)n(C)c1C (stereo not given) -16.1%
COCCN(Cc1ccco1)C(=O)c1cc2c(=O)[nH]c3ccc(C)cc3c2s1 -14%
CCOc1ccc2c(c1)c(=O)c(S(=O)(=O)c1ccc(F)cc1)cn2CC(=O)Nc1ccccc1C -12.6%
CCCS(=O)(=O)Nc1cccc(-c2cn3ccc(C)cc3n2)c1 -28.6%
NC1=NC(c2cccc(Cl)c2)n2c(nc3ccccc32)N1 (stereo not given) -9.51%
CCOC(=O)c1cnn(-c2ccc(C(=O)Nc3ccc(C(C)=O)cc3)cc2)c1N -15.6%
COc1ccc(C2C=C(c3ccc(Cl)cc3)Nc3nc(-c4ccc(Cl)cc4)nn32)cc1 (stereo not given) -8.37%
O=C(CSc1n[nH]c(-c2ccc(F)cc2)n1)NCc1ccccc1Cl 0.32%
